Experimental data from PubChem BioAssay AID445 (National Center for Advancing Translational Sciences (NCATS), 2006).
The whole screen tested about 110,000 compounds, of which about 40 (0.04%) were called active. This list was built around the results that the source calls inconclusive (neither active nor inactive); the mix of calls is not that of the screen. The call rests on the fitted dose curve; in most records, active means well fitted curve in the direction sought with a large enough effect in the signal ratio (not every such curve was filed as active); inconclusive means small, poorly fitted or top-dose-only effect, or a change in a side signal; inactive means flat fitted curve, though single readings scatter; the % refers to the signal ratio.

Test: IkB Signaling;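 further: 0% = basal untreated cells and 100% = reference inhibitor full response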
Conditions: ABC-DLBCL IkBa-CBG/CBR dual luciferase ratio (green luciferase fused to IkBa over red control in OCI-Ly3 lymphoma cells), 4 h; IkBa stabilization activation: at 57.1 µM (top of the series), scaled: untreated 0%, proteasome inhibitor 100% unless noted
Procedure, shortened: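 Luminescence ratio of IκBα-fused green versus native red beetle luciferase in OCI-Ly3 cells, 4 h post-doxycycline with compound; red signal alone, scaled from basal (0%) to zero light (-100%), flagged nonspecific or cytotoxic effects.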
For `CCOC(=O)c1ccc2ncc(C(=O)OCC)c(Nc3ccc(C)c(Br)c3)c2c1`, the IkBa stabilization activation was inconclusive: 12% [signal inhibitor].
In the case of `CCC(C(=O)NCc1ccccc1)n1ncn2c(cc3occc32)c1=O` (configuration not stated), the IkBa stabilization activation is reported as inconclusive: 3.32% [signal inhibitor].
In the case of `COc1ccc(Br)cc1CNC(=O)CN1C(=O)CSc2ccc(S(=O)(=O)N3CCOCC3)cc21`, the IkBa stabilization activation is reported as inconclusive: -0.787% [signal inhibitor].
For `COc1ccc(OC(C)C(=O)NCc2nc(-c3ccc(Cl)cc3)no2)cc1` (configuration not stated), the IkBa stabilization activation was inconclusive: -0.531% [signal inhibitor].
For `CC(C)Sc1ncc(Cl)c(C(=O)Nc2ccc(S(=O)(=O)N3CCCCC3C)cc2)n1` (configuration not stated), the IkBa stabilization activation was “inactive”.
With `NS(=O)(=O)c1cc2c(cc1Cl)NC=NS2(=O)=O` the IkBa stabilization activation was inconclusive: -4.01% [signal activator].
In the case of `Cc1cc2n(n1)C(c1ccc(N(C)C)cc1)Nc1ccccc1-2` (configuration not stated), the IkBa stabilization activation is reported as “inactive”.
With `COc1cc(OC)cc(C(=O)Nc2ccc(S(=O)(=O)Nc3onc(C)c3C)cc2)c1` the IkBa stabilization activation was inconclusive: -0.304% [signal inhibitor].
With `O=C(Cn1nc(C(F)(F)F)c2c1CCCC2)Nc1ccc(Cl)cc1` the IkBa stabilization activation was inconclusive: -1.91% [signal inhibitor].
In the case of `CCOC(=O)c1c(C)[nH]c(CCC(=O)Nc2cc(C)cc(C)c2)c1C`, the IkBa stabilization activation is reported as inconclusive: 4.4% [signal inhibitor].
For `O=C(Cn1ccc2ccccc2c1=O)NCCC(=O)N1CCN(c2cccc(C(F)(F)F)c2)CC1`, the IkBa stabilization activation was inconclusive: 2.33% [signal inhibitor].
With `COc1cc2nc(N3CCNCC3)nc(N)c2cc1OC` the IkBa stabilization activation was “inactive”.
With `O=C(NCCc1ccccc1)c1ccc(CSc2nc3ccncc3n2Cc2ccccc2)cc1` the IkBa stabilization activation was inconclusive: 0.968% [signal inhibitor].
For `CCN(CC)CCCNC(=O)c1cn(C)c2ccc(S(=O)(=O)N3CCOCC3)cc2c1=O`, the IkBa stabilization activation was “inactive”.
In the case of `COCc1c(C(=O)OCC(=O)N2c3ccccc3NC(=O)C2(C)C)oc2ccccc12`, the IkBa stabilization activation is reported as inconclusive: 1.1% [signal inhibitor].
For `CCCn1ccc2c(OCC(=O)Nc3ccc(F)cc3F)cccc2c1=O`, the IkBa stabilization activation was inconclusive: 8.6% [signal inhibitor].
For `O=C(Cc1cccs1)N1CCCC(c2nc(-c3ccc(S(=O)(=O)N4CCCC4)cc3)no2)C1` (configuration not stated), the IkBa stabilization activation was inconclusive: 2.85% [signal inhibitor].
With `Cc1cccc(OCC(=O)Nc2ccc3c(c2)N(C)C(=O)c2ccccc2S3)c1` the IkBa stabilization activation was inconclusive: 1.11% [signal inhibitor].
With `Cc1cccc(NC(=O)CSc2nc3c([nH]c4ccccc43)c(=O)n2-c2ccc(F)cc2)c1C` the IkBa stabilization activation was inconclusive: 3.53% [signal inhibitor].
For `Cc1ccc(C(=O)N/C(=C\c2cn(S(=O)(=O)N(C)C)c3ccccc23)C(=O)NCCCn2ccnc2)cc1`, the IkBa stabilization activation was inconclusive: 2.16% [signal inhibitor].
In the case of `CCOc1ccccc1NS(=O)(=O)c1ccc2oc(=O)c3ncn(C)c3c2c1`, the IkBa stabilization activation is reported as “inactive”.
With `CCn1cc(C(=O)NC(C)c2ccccc2)c(=O)c2cc(S(=O)(=O)N3CCc4ccccc4C3)ccc21` (configuration not stated) the IkBa stabilization activation was inconclusive: -1.53% [signal inhibitor].
With `Cc1ccc(NC(=O)Cn2cc(S(=O)(=O)N3CCCC3)c(S(=O)(=O)N3CCCC3)c2)c(C)c1` the IkBa stabilization activation was inconclusive: 0.559% [signal inhibitor].
With `Cc1occc1C(=O)N1CCN(c2ccc(Cl)c(Cl)c2)CC1` the IkBa stabilization activation was inconclusive: 2.25% [signal inhibitor].
For `O=C(CN(C(=O)CNC(=O)c1ccco1)c1ccc(Cl)c(Cl)c1)NC1CCCCC1`, the IkBa stabilization activation was inconclusive: 14.3% [signal inhibitor].
With `O=C(NCCc1ccc(Cl)cc1)c1cccn1-c1nnc(N2CCCC2)s1` the IkBa stabilization activation was inconclusive: 2.67% [signal inhibitor].
In the case of `COc1ccc(C(=O)c2cn(CC(=O)Nc3ccc4c(c3)OCO4)c3ccc(OC)cc3c2=O)cc1`, the IkBa stabilization activation is reported as inconclusive: 2.13% [signal inhibitor].
With `CC(=O)N1c2ccccc2C(=O)C1N1CCN(c2cc(Cl)ccc2C)CC1` (configuration not stated) the IkBa stabilization activation was inconclusive: 0.55% [signal inhibitor].
In the case of `CC(=O)c1ccc(N2CCN(S(=O)(=O)c3ccc4[nH]c5c(c4c3)CCCCC5)CC2)cc1`, the IkBa stabilization activation is reported as inconclusive: 5.51% [signal inhibitor].
In the case of `O=C(CSCc1cc(=O)c2ccccc2[nH]1)Nc1cccc(C(F)(F)F)c1`, the IkBa stabilization activation is reported as “inactive”.
For `Cc1cc(C)c2c(n1)nn1c(NCCCn3ccnc3)cc(C)nc21`, the IkBa stabilization activation was “inactive”.
In the case of `O=C(COc1ccc(S(=O)(=O)N2CCOCC2)cc1)Nc1ccc(Cl)c(C(F)(F)F)c1`, the IkBa stabilization activation is reported as inconclusive: 13.7% [signal inhibitor].
In the case of `Cn1c(-n2c(CCN3C(=O)c4ccccc4C3=O)nc3ccccc3c2=O)nc2ccccc21`, the IkBa stabilization activation is reported as inconclusive: -0.45% [signal inhibitor].
With `CCC1CN(C(=O)N2CCC(C(=O)N(C)Cc3ccccc3)CC2)c2ccccc2O1` (configuration not stated) the IkBa stabilization activation was inconclusive: -0.741% [signal inhibitor].
With `Cc1ccc2nc(CN3CCN(C(=O)Nc4cccc(C)c4C)CC3)oc2c1` the IkBa stabilization activation was inconclusive: 0.19% [signal inhibitor].
In the case of `CN1CCN(C(=O)c2ccc(Cl)c(S(=O)(=O)N3CCCCC3)c2)CC1`, the IkBa stabilization activation is reported as “inactive”.
With `CCOC(=O)c1cnn(-c2ccccn2)c1N` the IkBa stabilization activation was “inactive”.
With `COC(=O)c1scc(-c2ccc(C)cc2)c1S(=O)(=O)Nc1c(C)cc(C)cc1C` the IkBa stabilization activation was inconclusive: 2.61% [signal inhibitor].
For `COc1ccc(NC(=O)CN2C(=O)CC(c3ccco3)Sc3ccccc32)cc1OC` (configuration not stated), the IkBa stabilization activation was inconclusive: -0.469% [signal inhibitor].
With `Cc1nn(-c2ccccc2)c2sc(C(=O)O)cc12` the IkBa stabilization activation was “inactive”.
For `O[C@@H](c1cc(-c2ccccc2)nc2c1ccc1ccccc12)[C@@H]1CCCCN1`, the IkBa stabilization activation was inactive: 1.02% [at 11.4 µM, scaled: untreated 0%, proteasome inhibitor 100%].
For `Cc1ccc(-n2ncc(C(=O)NCCCN3CCc4ccccc4C3)c2C2CCN(C(=O)OC(C)(C)C)CC2)cc1C`, the IkBa stabilization activation was inconclusive: -4.76% [signal inhibitor].
For `COc1ccc2c(c1)c1c(c(=O)n(Cc3ccccc3)c(=O)n1Cc1ccc(C)cc1)n2C`, the IkBa stabilization activation was “inactive”.
For `CC(CNC(=O)CN1C(=O)COc2ccc(S(=O)(=O)N3CCCCC3)cc21)c1ccccc1` (configuration not stated), the IkBa stabilization activation was inconclusive: 0.397% [signal inhibitor].
With `O=C(Nc1ccc(Cl)cc1)C1CCN(S(=O)(=O)c2ccc(Br)s2)CC1` the IkBa stabilization activation was inconclusive: -4.81% [signal inhibitor].
In the case of `Cc1ccccc1C(=O)Nc1ccc(C(=O)OCc2cc(=O)n3nc(C4CC4)sc3n2)cc1`, the IkBa stabilization activation is reported as inconclusive: 1.43% [signal inhibitor].
With `CC1(C)Cc2cccc(OCC(=O)N3CCN(S(=O)(=O)c4ccc(F)cc4)CC3)c2O1` the IkBa stabilization activation was inconclusive: 0.531% [signal inhibitor].
With `CC1CN(C(=O)Nc2ccc(C(=O)NCCc3ccccc3Cl)cc2)c2ccccc2S1` (configuration not stated) the IkBa stabilization activation was inconclusive: 1.96% [signal inhibitor].
With `CCOc1ccc(NC(=O)CC2C(=O)N(c3cccc(C)c3)C(=O)N2Cc2ccco2)cc1` (configuration not stated) the IkBa stabilization activation was inconclusive: 0.232% [signal inhibitor].
In the case of `Cn1cccc1C(=O)Nc1nccs1`, the IkBa stabilization activation is reported as inconclusive: 0.791% [signal inhibitor].
With `CCOC(=O)C1CCN(C(=O)c2cc3ccc4ccc(C)[nH]c4c3n2)CC1` the IkBa stabilization activation was inconclusive: 8.35% [signal inhibitor].
With `CCOc1ccc(C(C)=O)cc1Cn1nc(C(=O)O)c2ccccc2c1=O` the IkBa stabilization activation was “inactive”.
For `c1ccc(Cn2c(CSc3nnnn3-c3ccccc3)nc3ccccc32)cc1`, the IkBa stabilization activation was inconclusive: 12% [signal inhibitor].
With `O=C(CSc1nnc(-c2ccccn2)n1Cc1ccco1)c1ccccc1` the IkBa stabilization activation was “inactive”.
For `O=C(O)/C=C\[C@H](O)c1ccc(Cl)cc1`, the IkBa stabilization activation was “inactive”.
For `O=C(Cc1ccc(Cl)cc1)NCC(c1cccs1)S(=O)(=O)c1ccc(Cl)cc1` (configuration not stated), the IkBa stabilization activation was inconclusive: 1.37% [signal inhibitor].
With `Cc1cccc(C(=O)Nc2nnc(SCc3cc(=O)n4cccc(C)c4n3)s2)c1` the IkBa stabilization activation was “inactive”.
For `O=C(CSc1nnc(-c2ccccc2F)o1)N1CCc2ccccc21`, the IkBa stabilization activation was inconclusive: 4.73% [signal inhibitor].
For `Cc1cccc(NC(=O)c2c(NC(=O)c3ccco3)sc3c2CCC(C(C)(C)C)C3)c1` (configuration not stated), the IkBa stabilization activation was inconclusive: 1.48% [signal inhibitor].
For `COc1ccccc1CNc1nc(-c2ccoc2)nc2ccccc12`, the IkBa stabilization activation was inactive: 20.1% [at 11.4 µM, scaled: untreated 0%, proteasome inhibitor 100%].
In the case of `COc1ccc(CNc2ncnc3ccc(-c4ccccc4OC)cc23)c(OC)c1`, the IkBa stabilization activation is reported as inactive: 6.5% [at 11.4 µM, scaled: untreated 0%, proteasome inhibitor 100%].
In the case of `N#Cc1cccc(-c2nc(NCc3ccccc3)c3ccccc3n2)c1`, the IkBa stabilization activation is reported as inactive: -0.18% [at 11.4 µM, scaled: untreated 0%, proteasome inhibitor 100%].
In the case of `COc1ccc(NC(=O)CN(c2ccc(C)cc2)S(=O)(=O)c2cccs2)cc1OC`, the IkBa stabilization activation is reported as “inactive”.
With `Fc1ccccc1N1CCN(c2c3c(nc4nncn24)CCC3)CC1` the IkBa stabilization activation was inconclusive: -0.0154% [signal inhibitor].
With `Cc1ccc(OCCCC(=O)Nc2sc3c(c2C(N)=O)CCCC3)cc1` the IkBa stabilization activation was inconclusive: 8.97% [signal inhibitor].
With `CCCCN(C)C(=O)Cn1ncc2c([nH]c3ccc(C)cc32)c1=O` the IkBa stabilization activation was inconclusive: 2.92% [signal inhibitor].
For `C=CCN1C(=O)C2C(C(=O)NC)C3(C)C=CC2(O3)C1C(=O)NCc1ccc(OC)cc1` (configuration not stated), the IkBa stabilization activation was “inactive”.
